Test results: the supplement of paper PMC3334620
The full ranking holds about 33,000 sequences; the median of “E-score (-0.5 to 0.5)” is about -0.017, and the highest 2% start at about 0.3. The list shows a part of the results.

The sequences below were run against T1, Sut1 (UniProt P53032) (assay: PBM E-score (8-mer binding enrichment) (E-score (-0.5 to 0.5)); higher = stronger / more preferred TF binding; most listed sequences are background and not binding sites). Details: protein concentration: 200 nM; construct: GST-full length.
T1 sequence: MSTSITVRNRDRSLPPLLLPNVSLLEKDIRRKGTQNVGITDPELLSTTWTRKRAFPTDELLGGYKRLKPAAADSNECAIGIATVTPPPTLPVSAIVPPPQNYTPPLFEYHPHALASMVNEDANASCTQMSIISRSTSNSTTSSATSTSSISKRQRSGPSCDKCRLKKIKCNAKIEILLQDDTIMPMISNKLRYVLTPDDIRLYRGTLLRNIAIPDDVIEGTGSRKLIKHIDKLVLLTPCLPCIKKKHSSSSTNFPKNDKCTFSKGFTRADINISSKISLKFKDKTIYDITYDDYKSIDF
Procedure, shortened: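 Universal all-10-mer Agilent arrays, double-stranded by primer extension on fresh or once-stripped slides, were probed with about 100-200 nM GST-tagged yeast transcription factors made by PURExpress. Fluorescent anti-GST detected bound protein, and masliner normalised the scans. E-scores from the Universal PBM Analysis Suite were given to each ungapped eight-base word pooled with its reverse complement.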
In the case of ATATCTTC, the “PBM E-score” value was 0.196. GAATGGGA was tested, and the “PBM E-score” value was -0.0732. With CTTGCCCC the “PBM E-score” value was -0.0609. For GATCGTCC, the “PBM E-score” value was -0.0713. With ACTACGTC the “PBM E-score” value was -0.236. ACATCTGC was tested, and the “PBM E-score” value was -0.193. For CTGAGGAC, the “PBM E-score” value was -0.0483. In the case of GGTGTCGA, the “PBM E-score” value was -0.131. With ACCTACCT the “PBM E-score” value was 0.025. For ATGACGCC, the “PBM E-score” value was -0.124. AAATATGA was tested, and the “PBM E-score” value was 0.114. ATCGAACG was tested, and the “PBM E-score” value was -0.0472. In the case of ATAATCAT, the “PBM E-score” value was 0.237. With CATGACCA the “PBM E-score” value was -0.237. ACCAGATC was tested, and the “PBM E-score” value was -0.121. For GGCTAGCA, the “PBM E-score” value was -0.105. CCCGTGCG was tested, and the “PBM E-score” value was -0.168. In the case of AGGGTAAA, the “PBM E-score” value was 0.0374. With CCAATCAA the “PBM E-score” value was 0.0316. For AACATATG, the “PBM E-score” value was 0.0611. In the case of AACTTAAT, the “PBM E-score” value was 0.22. ACATAGTA was tested, and the “PBM E-score” value was 0.0863. CCTTGAGA was tested, and the “PBM E-score” value was 0.00321. For CTATGCGA, the “PBM E-score” value was -0.0701. In the case of CCAGTATC, the “PBM E-score” value was -0.0266. With AAGGAAAA the “PBM E-score” value was 0.239. With AGGGCAAT the “PBM E-score” value was -0.15. In the case of AAGGCGGC, the “PBM E-score” value was -0.135. In the case of ACAACGCG, the “PBM E-score” value was 0.0166. GAGCTCGC was tested, and the “PBM E-score” value was -0.0965. For CGATCCTA, the “PBM E-score” value was -0.052. AGGGAACC was tested, and the “PBM E-score” value was -0.129. In the case of GAGTGTAA, the “PBM E-score” value was -0.195. ATAATCCA was tested, and the “PBM E-score” value was 0.0339. ATAGGGAG was tested, and the “PBM E-score” value was -0.219. For CCCACTTC, the “PBM E-score” value was -0.0765. ATATCCAG was tested, and the “PBM E-score” value was -0.168. In the case of GGGTACGA, the “PBM E-score” value was -0.197. ATCTACAT was tested, and the “PBM E-score” value was 0.123. With TAAACATA the “PBM E-score” value was 0.125. AAACATAA was tested, and the “PBM E-score” value was 0.0774. In the case of CCGGTCGA, the “PBM E-score” value was -0.144. For TACAAGTA, the “PBM E-score” value was 0.0389. GCACCGGC was tested, and the “PBM E-score” value was -0.0791. For AGGGCGTA, the “PBM E-score” value was -0.194. In the case of ATCCTACG, the “PBM E-score” value was -0.138. With CGTGCCGA the “PBM E-score” value was -0.121. CGGTAGGA was tested, and the “PBM E-score” value was -0.105. GCCGCCGA was tested, and the “PBM E-score” value was -0.0122. With ATTCACGA the “PBM E-score” value was 0.145. AGGGATAA was tested, and the “PBM E-score” value was 0.0543. In the case of GACCCTGC, the “PBM E-score” value was -0.286. ATTTGTTG was tested, and the “PBM E-score” value was 0.145. AGGCAAAG was tested, and the “PBM E-score” value was -0.0491. For AATGGAGA, the “PBM E-score” value was 0.0365. In the case of ACTAGTCT, the “PBM E-score” value was -0.049. ATTGCAAA was tested, and the “PBM E-score” value was 0.236. CGTAAGTC was tested, and the “PBM E-score” value was 0.107. ACCATTCG was tested, and the “PBM E-score” value was -0.0868. In the case of CGGTTAGC, the “PBM E-score” value was -0.0715. With GGGACAAC the “PBM E-score” value was -0.231. For CGTTAATA, the “PBM E-score” value was 0.198. ATTAAGTA was tested, and the “PBM E-score” value was 0.175. In the case of GGGAAAAC, the “PBM E-score” value was 0.0484. In the case of GACTGTCC, the “PBM E-score” value was -0.00572. In the case of CAAGCTTA, the “PBM E-score” value was -0.108. GCCGGCCC was tested, and the “PBM E-score” value was -0.119. With CAATCAGG the “PBM E-score” value was -0.167. For TATGACAA, the “PBM E-score” value was 0.0874. In the case of GCCTTGCC, the “PBM E-score” value was -0.155. For CAGCTACA, the “PBM E-score” value was -0.0929. In the case of GACTAAGC, the “PBM E-score” value was 0.0931. With CTTTAAAA the “PBM E-score” value was 0.175. For AATCTGAG, the “PBM E-score” value was -0.00107. With ACGGTCTG the “PBM E-score” value was -0.1. With CAATACGA the “PBM E-score” value was 0.0856. In the case of GAGTATAC, the “PBM E-score” value was -0.00309. GTGCCCAA was tested, and the “PBM E-score” value was -0.185. For ACGGGTTG, the “PBM E-score” value was -0.342. For GGTAAGCA, the “PBM E-score” value was -0.0897. With ATGGGCGC the “PBM E-score” value was -0.254. TCTGTTAA was tested, and the “PBM E-score” value was 0.0688. AGCACGCA was tested, and the “PBM E-score” value was -0.21. ACATGAGA was tested, and the “PBM E-score” value was 0.0979. For ATTAGAAC, the “PBM E-score” value was 0.26. For AAACCCCT, the “PBM E-score” value was -0.185. In the case of ACTACGCT, the “PBM E-score” value was 0.052. TCAGGGCA was tested, and the “PBM E-score” value was -0.382. TGCATCCA was tested, and the “PBM E-score” value was 0.0253. With CCGAAGTC the “PBM E-score” value was 0.269. For CTACGCCA, the “PBM E-score” value was -0.209. In the case of GCACACCC, the “PBM E-score” value was -0.283. GATTGTAA was tested, and the “PBM E-score” value was 0.108. With CAACTTAG the “PBM E-score” value was 0.097. In the case of AAACGGAG, the “PBM E-score” value was 0.37. For CTGTTATA, the “PBM E-score” value was 0.202. For AAGCTATT, the “PBM E-score” value was 0.0716. With ACGACGAG the “PBM E-score” value was -0.163. CAACGGGC was tested, and the “PBM E-score” value was 0.0172. CCGGAGCG was tested, and the “PBM E-score” value was 0.234. GCCAACGA was tested, and the “PBM E-score” value was -0.0291. With AAATTTAG the “PBM E-score” value was 0.254. For AACAAACA, the “PBM E-score” value was 0.256. In the case of CCTGCGTC, the “PBM E-score” value was -0.184. In the case of GATGTTCA, the “PBM E-score” value was -0.191. For ACAAGTTG, the “PBM E-score” value was -0.0358. In the case of GACGGTCC, the “PBM E-score” value was -0.0948. In the case of CGCCTCCA, the “PBM E-score” value was -0.0139. With ATCACTGC the “PBM E-score” value was -0.0751. With GTCTGTAA the “PBM E-score” value was 0.0806. With CCTCCCGA the “PBM E-score” value was -0.289. For CTACCCGC, the “PBM E-score” value was -0.124. In the case of TCACTGGA, the “PBM E-score” value was 0.0336. With GAACGATC the “PBM E-score” value was 0.00632. With CATTCTGA the “PBM E-score” value was 0.00217. GGATGGAC was tested, and the “PBM E-score” value was -0.139. ACAGTTCA was tested, and the “PBM E-score” value was -0.0491. CACCCTAA was tested, and the “PBM E-score” value was -0.167. With GCGCTCAA the “PBM E-score” value was 0.102. With ACCTACAA the “PBM E-score” value was 0.0492. For ATGGTAAG, the “PBM E-score” value was -0.151. With GAAATTCC the “PBM E-score” value was 0.0935. With CTCGACTC the “PBM E-score” value was 0.0469. For CCCATTGC, the “PBM E-score” value was -0.113. GCGGACGC was tested, and the “PBM E-score” value was -0.28. In the case of TATCAGGA, the “PBM E-score” value was 0.0818. For ACAGGTAC, the “PBM E-score” value was -0.0274. With AACGCGCC the “PBM E-score” value was -0.0943. In the case of AAATAGTT, the “PBM E-score” value was 0.19. With CAAACATC the “PBM E-score” value was 0.127. For GCAGGCAA, the “PBM E-score” value was 0.0353. In the case of CTATCTAA, the “PBM E-score” value was 0.0501. For CGATGCAC, the “PBM E-score” value was -0.151. For CAACCGCG, the “PBM E-score” value was 0.149. With AACAAGAT the “PBM E-score” value was 0.106. With AGTCCAGG the “PBM E-score” value was -0.147. With AGGGTTAC the “PBM E-score” value was -0.28. In the case of CGGCCCCG, the “PBM E-score” value was -0.0814. AAATCAAT was tested, and the “PBM E-score” value was 0.144. With CTGAAAAA the “PBM E-score” value was 0.0209. For AGAACGGG, the “PBM E-score” value was 0.0594. For ACACCGCC, the “PBM E-score” value was -0.0681. For ACAACGTA, the “PBM E-score” value was -0.0745. For CCTTATTC, the “PBM E-score” value was -0.197. CACTCTAG was tested, and the “PBM E-score” value was -0.0109. CCCGGAGG was tested, and the “PBM E-score” value was 0.0148. AGGGTTTC was tested, and the “PBM E-score” value was -0.0383. In the case of CGGTTCCA, the “PBM E-score” value was 0.049. GCTGTCAC was tested, and the “PBM E-score” value was -0.0802. In the case of GATCACAC, the “PBM E-score” value was -0.0906. In the case of ACCCCGTC, the “PBM E-score” value was -0.139. With ACTTAGGC the “PBM E-score” value was -0.102. CTGCCAAC was tested, and the “PBM E-score” value was -0.25. ACCACATG was tested, and the “PBM E-score” value was -0.00856. CCGGAACA was tested, and the “PBM E-score” value was 0.304. In the case of GCTCTGAC, the “PBM E-score” value was -0.202. With GGCCCAAC the “PBM E-score” value was -0.0886. TAAATGAA was tested, and the “PBM E-score” value was 0.109. For AAAGTCAA, the “PBM E-score” value was 0.157. In the case of ACGGCCAG, the “PBM E-score” value was -0.0132. With AGTTAAAC the “PBM E-score” value was 0.2. AACCATGC was tested, and the “PBM E-score” value was 0.00747. In the case of AGAATGCA, the “PBM E-score” value was 0.0147. For CGGCATGC, the “PBM E-score” value was -0.0106. GTTAGCTA was tested, and the “PBM E-score” value was -0.237. With ATCAAATG the “PBM E-score” value was 0.135. GCAGACAC was tested, and the “PBM E-score” value was -0.0447. For GTTAAGCA, the “PBM E-score” value was 0.0986. For CCGGAATA, the “PBM E-score” value was 0.294. With AGGTATAA the “PBM E-score” value was 0.129. For CGTCGTGC, the “PBM E-score” value was 0.00804. With GCGGGGAC the “PBM E-score” value was -0.134.
